In PubChem BioAssay AID1814 (Broad Institute, 2009):
In all, about 300,000 compounds went through this assay and about 22,000 (7.3%) were called active. Inconclusive means that the source gave no clear call. Such entries were picked first, then a sample of the others. No stated cut-off is given here; in the data, active means activity score below about -60%; inconclusive means mostly about -28% to -61%; inactive means positive scores.

test: Activators via SNCA 5'UTR binding, MLPCN (AID 1814); details: alpha-synuclein 5'UTR reporter, activators screen; hits give low values; tested at 7.5 µM

Activity score, active:
Cc1nc(N)sc1-c1csc(N(C)c2ccc(O)cc2)n1 -127%
COc1ccc(C(=O)Cn2cnc3ccccc3c2=O)c(OC)c1 -96.3%
c1cnc2nc(-c3ccc4c(c3)OCO4)cn2c1 -93.2%
CCCN1CN=C(Nc2nc3ccccc3o2)NC1 -113%
Cc1ccc(C(=O)Nc2nc(-c3cccnc3)cs2)o1 -101%
O=C(NC(=S)Nc1ccccc1)c1cccs1 -147%
Cc1c(C(=O)Nc2cccc3cccnc23)oc2ccccc12 -118%
Cc1ccc(-c2nc(NCc3ccco3)n(C(=O)c3ccco3)n2)cc1 -143%
CCOC(=O)c1cn(CC)c2c(ccc3ccccc32)c1=O -89.7%
CCNc1nc(-c2ccc(OC(F)F)cc2)c(C)s1 -72%
CCOc1ccc(NC(=O)CCNC(=O)c2ccc(Br)cc2)cc1 -69.9%
C/C(=N\NC(=O)c1cc(Cl)ccc1O)c1ccc(Br)s1 -76%
Nc1nc(Cl)nc2ccc(Br)cc12 -123%
Cc1ccc(C(=O)OCC(=O)c2ccccc2)cc1 -85.2%
COc1ccc(/C=N/Nc2cc(N(C)C)nc(N(C)C)n2)cc1 -65.2%
CC1CCC(NC(=O)C(=O)Nc2ccc3c(c2)OCO3)CC1 (centres undefined) -114%
COc1cc2c(C)nc3c(cnn3-c3ccccc3)c2cc1OC -240%
O=C(/C(=C/c1ccc(Cl)cc1)c1nc2ccccc2[nH]1)c1ccccc1 -217%
O=C(Oc1oc(-c2ccco2)nc1C=Nc1ccc(Cl)cc1)c1ccco1 -170%

Activity score, inconclusive:
CN(C)c1nc(N/N=C/c2ccccc2O)nc(Nc2ccc(F)cc2)n1 -60.2%
Cn1c(-c2ccc(Br)o2)nc2ccccc21 -60.3%
COc1ccccc1OCC(=O)Nc1ccc(Cl)cc1 -54.3%
Cc1ccc(C)n1-c1ccc(C(=O)NN)s1 -31.1%
CC(=O)Nc1ccc(-c2ccc(NC(C)=O)cc2)cc1 -60.2%
Cc1ccc(C(=O)COc2ccc3c(C)cc(=O)oc3c2)cc1 -59.5%
O=c1oc2cc(Oc3ccc(C(F)(F)F)cc3[N+](=O)[O-])ccc2c2c1CCC2 -49.8%
O=C(Nc1ccc(Cl)cc1)[C@@H]1[C@@H]2C(=O)N(c3ccc4ccccc4c3)C(=O)[C@@H]2[C@H]2C=CC=NN21 -41.3%
CCOC(=O)CCc1c(C)nc2cc(-c3ccc(F)cc3)[nH]n2c1=O -52.4%
CC(C)(C)c1ccc(-c2cc(-c3ccccc3O)[nH]n2)cc1 -33.5%
CCN(CC)C(=O)c1ccc(COc2ccccc2Br)o1 -59.4%
O=C(CSc1ccc2ccccc2n1)c1ccc2c(c1)OCO2 -54.9%
CC1CC(Nc2ccccc2)c2ccccc2N1C(=O)c1ccco1 (centres undefined) -31.6%
COc1ccc(NCc2ccsc2)cc1 -60.5%
Cc1ccc(-c2csc(NC(=O)CCNC(=O)c3ccco3)n2)cc1 -51.7%
Cc1ccc(C(C(=O)NC2CCCCC2)N(C(=O)Cc2c[nH]c3ccccc23)c2ccccc2C)o1 (centres undefined) -39.5%
CCC(C)c1ccc(NC(=S)NCc2cccs2)cc1 (centres undefined) -57.5%
O=C(NC1CCCc2ccccc21)C1CCN(S(=O)(=O)c2cccc3nonc23)CC1 (centres undefined) -33.9%
Cc1snc(S(=O)(=O)Cc2ccccc2Cl)c1C#N -56.7%
CC1(C)CC(=O)C(N=Nc2ccc(Br)cc2)=C(O)C1 -36.8%
CCn1c(CCNC(=O)c2cccs2)nnc1SCC(=O)Nc1nc(-c2ccccc2)cs1 -54.4%
COc1ccc(N=N/C(=C\O)C(=O)c2ccco2)cc1 -56.5%
CCCCCOCC1CC(C/C(C)=N/Nc2nc(-c3ccccc3)cs2)C(=O)O1 (centres undefined) -53.9%
c1csc(-c2nnc(COc3ccc4c(c3)OCO4)o2)c1 -55.1%
Cc1ccc(CNS(=O)(=O)c2ccccc2[N+](=O)[O-])cc1 -33%
O=C(CCn1c(=O)oc2ccccc21)Nc1ccccc1 -42.1%
COc1ccc(NC(=O)c2cc(-c3cc(OC)c(OC)c(OC)c3)nc3ccccc23)cc1OC -56%
O=C(Cn1c(=O)n(Cc2ccco2)c(=O)c2c3c(sc21)CCCCC3)Nc1ccccc1 -53.7%
COCc1nnc(NC(C)=O)s1 -55.7%
Cc1ccc(-c2nc(N)n(C(=O)c3cccs3)n2)cc1 -55.2%
COc1cc(C(=O)Nc2ccc(NC(=O)c3ccccc3)nc2)cc(OC)c1OC -41.4%
O=C(Cc1ccc(-n2cccc2)cc1)N1CCc2ccccc21 -58.2%
O=c1c(O)cccc2cc(O)c(O)c(O)c12 -39.5%
CSc1ccc(C2Nc3cccc4cccc(c34)N2)cc1 -56.9%
COc1ccc(C(=O)c2sc3nc(-c4ccc(OC)cc4)ccc3c2N)cc1 -57.3%
O=C(/C=C\NCC(=O)c1ccccc1)c1ccc(F)cc1 -55.1%
C=CCNC(=O)COc1ccc(Oc2ccccc2)cc1 -56.6%
CCOc1ccc2nc(COC(=O)c3ccncc3)c(C(=O)c3ccccc3)[n+]([O-])c2c1 -60.2%
O=C(c1ccncc1)c1ccc(NC(=O)c2cccs2)cc1 -48.2%
Cc1ccc(C(=O)/C=C/c2ccc(F)cc2)o1 -51%
Cc1cccc(N2C(=O)CC(N(O)c3ccccc3)C2=O)c1 (centres undefined) -42.7%
Cc1cccc(OCC2=N/C(=C\N(C)C)C(=O)O2)c1 -49.7%
CCCc1nnc(SCC(=O)Nc2cccc(Cl)c2Cl)o1 -41.9%
O=C(NNC(=O)c1ccccc1Cl)c1cccs1 -39.4%
Cc1onc(C(=O)Nc2sc3c(c2C(N)=O)CCCC3)c1[N+](=O)[O-] -42.4%
CCOC(=O)c1c(N)sc(C(=O)Nc2ccccc2)c1C -47.2%
N=C1/C(=C/c2ccc(-c3cccc(C(=O)O)c3)o2)C(=O)N=C2SC(CC(=O)N3CCOCC3)=NN12 -48%
Cc1ccc(C(=O)/C=C/c2ccccc2)o1 -53%
CCc1nnc2sc(-c3ccc(NC(=O)c4ccco4)cc3)nn12 -55.9%
c1ccc(CSc2nnc(Cc3ccccn3)o2)cc1 -55.1%
COC(=O)c1ccccc1NC(=O)C1CC(=O)N(c2ccc(OC)cc2)C1 (centres undefined) -22.6%
O=C(NCc1cccnc1)c1noc2c1CCCCC2 -53.2%
CC(C)NC(=O)N(Cc1ccccc1)Cc1cccs1 -42.5%

Activity score, inactive:
C=CC(=O)N=c1sc2ccccc2n1-c1ccccc1 69.7%
Cc1cc2ncc(-c3ncc(C(F)(F)F)cc3Cl)cn2n1 65.4%
COc1ccc(C2c3ccc4ccccc4c3Oc3ncn(CCCN(C)C)c(=N)c32)cc1 (centres undefined) 89.8%
Cn1cc([N+](=O)[O-])c(C(=O)Nc2nc(-c3ccc(Cl)cc3)cs2)n1 62.8%
O=[N+]([O-])c1ccc(O)c(/C=N/Nc2ncnc3c2cnn3-c2ccccc2)c1 66.3%
Cc1cccc(N(C)S(=O)(=O)c2ccc(-c3cnc(C4CC4)o3)cc2)c1 97.4%
O=C(CSCC(=O)Nc1ccccc1)N/N=C/c1c(O)ccc2ccccc12 76.3%
C/C(=N\OCc1cccc(C(=O)O)c1)c1ccc(Cl)cc1 104%
Oc1c(Br)cc(Br)cc1/C=N/Nc1ccc(Cl)nn1 96.7%
CN(C)CCN(C(=O)/C=C/c1cccs1)c1nc2c(F)cc(F)cc2s1 96%
O=C(COc1ccc(/C=N/NC(=O)c2cc3ccccc3o2)cc1Cl)Nc1ccccc1 101%
CCOC(=O)c1ccc(NC(=S)N(CCN(C)C)Cc2cccs2)cc1 53.2%
O=C(N/N=C/c1cn(Cc2ccccc2)c2ccccc12)c1cc(O)cc(O)c1 62.1%
Cc1onc(-c2ccccc2)c1C(=O)NC(=S)NNC(=O)c1ccc(O)cc1O 64.1%
O=C(CSc1nnc(COc2ccc(Cl)cc2)o1)N1c2ccccc2CCc2ccccc21 59.9%
CCCC(=O)Nc1ccc(C(=O)N/N=C/c2ccc([N+](=O)[O-])o2)cc1 111%
Cc1ccc(C(=O)Nc2cccc(C(F)(F)F)c2)cc1NC(=O)c1nccnc1N 78.5%
Cc1nc(Nc2cnc(/C=C/c3cc(C(=O)Nc4cccc(C(F)(F)F)c4)ccc3C)cn2)cc(N2CCNCC2)n1 81.2%
CN(c1ccc2nc3ccccc3c(=O)n2n1)C1CCCCC1 119%
O=C(NC(=S)N(CCc1ccccc1)CCc1ccccc1)c1ccco1 51.2%
Cc1c(OCC(=O)Nc2cccnc2)ccc2c3c(c(=O)oc12)CCC3 57.7%
Cc1cc(C(=O)COc2cccnc2[N+](=O)[O-])c(C)n1-c1ccccc1F 67.5%
